Assay results taken from PubChem BioAssay AID652104 (National Center for Advancing Translational Sciences (NCATS), 2013).
Screen size: about 410,000 compounds; about 7,200 (1.8%) were called active. The shares of active, inactive and inconclusive entries below differ from those in the screen. Calls come from the whole dose curve; as a rule, active = well fitted activation curve with a large enough effect; inconclusive = small, poorly fitted or top-dose-only effect, or another doubt; inactive = no such curve, though single readings can be large or run the other way. No potency is given beside an inconclusive call; the fits are too rough.
Potency is the fitted concentration of half-maximal effect; tags give direction and shape of the fitted curve.

Test: qHTS of TDP-43 Inhibitors; note: nearly all actives have a fitted effect of over 50% in size; for growth rescue (activation): % of control where 0% means no effect
Conditions: TDP-43 expressing yeast growth rescue, BacTiter-Glo, 24 h; growth rescue (activation): at 46.1 µM (top of the series) unless noted
Procedure, shortened: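 Growth rescue of TDP-43-toxic yeast measured as ATP luminescence (BacTiter-Glo). Cells grown to mid-log in raffinose, induced in galactose at OD600=0.02, exposed to compound 24 hr at 30 deg C.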
In the case of `Cc1cc(N2CCN(C(=O)c3ccoc3)CC2)n2nc(-c3ccccc3)cc2n1`, the “growth rescue (activation)” value was inactive: -6.84%. In the case of `CCOc1ccc(Cl)cc1CSc1ncn[nH]1`, the Potency was inconclusive [activator, single point]. With `COc1ccc(N2CCN(C(=O)c3ccccc3F)CC2)c([N+](=O)[O-])c1` the Potency was inconclusive [activator, single point]. For `Cc1cc(N2CCN(c3ccccc3)CC2)nc(-c2ccccc2O)n1`, the Potency was active: 17.8 µM. In the case of `O=C(Nc1cccc(C(F)(F)F)c1)OCc1ccncc1`, the Potency was inconclusive [activator, partial curve]. With `Cc1ccc(C)c(CC(=O)N2CCCCC2c2cc(C(=O)Nc3cccc(C#N)c3)no2)c1` (configuration not stated) the Potency was inconclusive [activator, single point]. For `Cn1c(-c2c(N)n(CCCc3ccccc3)c3nc4ccccc4nc23)nc2ccccc21`, the Potency was inconclusive [activator, single point]. With `C=CCNc1oc(COc2ccc(C)cc2)nc1C#N` the Potency was inconclusive [activator, single point]. In the case of `CC1=C(c2ccc(C)c(C)c2)S(=O)(=O)N(Cc2ccc(C(=O)NCc3ccccc3F)cc2)C1=O`, the “growth rescue (activation)” value was inactive: 15.8%. With `CCCNC(=O)NC(=O)COc1ccc(-c2ccc(C#N)cc2)cc1` the “growth rescue (activation)” value was inactive: -17.3%. In the case of `N#C/C(=C\c1ccc(O)cc1)C(=O)NCC1CCCO1` (configuration not stated), the “growth rescue (activation)” value was inactive: 27.3%. With `O=C(NCc1ccco1)c1sc2cc(F)ccc2c1Cl` the Potency was inconclusive [activator, single point]. With `COC(=O)c1ccc(CSc2nc3c(c(=O)n2-c2ccc(C)cc2)SCC3)o1` the Potency was inconclusive [activator, partial curve]. In the case of `CC1(C)C2CCC(C2)C1(C)NC(=O)CN1CCN(Cc2ccccc2)CC1` (configuration not stated), the “growth rescue (activation)” value was inactive: -5.86%. In the case of `COC(=O)c1c(C(=O)OC)c(-c2ccc(Cl)cc2)n2c1CS(=O)(=O)C2`, the Potency was inconclusive [activator, single point]. In the case of `CCn1c(=NC(=O)CSC(C)=O)sc2ccccc21`, the Potency was inconclusive [activator, partial curve]. For `Cc1ccc(C)c(NC(=O)Cn2ncc3c(C)n(Cc4ccc(F)cc4)c(C)c3c2=O)c1`, the “growth rescue (activation)” value was inactive: 20.9%. For `O=C1Nc2ccccc2/C1=C\C(=O)c1ccccc1`, the growth rescue (activation) was inconclusive: -91.2% [activator]. In the case of `CCn1nc(C)c2c(-c3ccccc3)cc(=O)n(C(C)C(=O)Nc3ccc(OC)c(OC)c3)c21` (configuration not stated), the “growth rescue (activation)” value was inactive: 27.3%. In the case of `CCOC(CNCc1cc(C)c2[nH]c3ccccc3c2c1C)OCC`, the “growth rescue (activation)” value was inactive: 15.4%. With `O=C1C(Cl)=C(N2CCC(C(=O)O)CC2)C(=O)c2ccccc21` the Potency was active: 17.8 µM. In the case of `COc1ccc(-c2ccc(N)cn2)cn1`, the Potency was inconclusive [activator, partial curve]. In the case of `Cc1ccc(C)c(S(=O)(=O)NCc2ccc3c(c2)OCO3)c1`, the Potency was inconclusive [activator, single point]. For `CCC/C=C/c1ccc(CN2C(CC(C)C)C(=O)N(Cc3cn(CCC4OCCO4)nn3)CCS2(=O)=O)cc1` (configuration not stated), the Potency was inconclusive [activator, single point]. With `CC1(C)CC2CC(C)(CN2C(=S)Nc2ccccc2)C1` (configuration not stated) the Potency was inconclusive [activator, single point]. In the case of `COc1ccc(-c2nn(C)c3sc(C(=O)NCCN(C)C)cc23)cc1OC`, the Potency was inconclusive [activator, full curve, poor fit]. With `CC(Cc1ccccc1)NC(=S)CN1CCCC1=S` (configuration not stated) the Potency was inconclusive [activator, partial curve]. For `CCC1CCCCN1CCCNC(=O)c1ccc2c(c1)c(C)c(C)n2CC` (configuration not stated), the Potency was “inactive”. In the case of `COc1cc(CNc2ccc(O)cc2)cc(Br)c1OCc1ccccc1`, the Potency was inconclusive [activator, partial curve]. In the case of `CCN1CCc2c(C#N)c(N3CCCCC3)nc(NCc3ccccc3)c2C1`, the “growth rescue (activation)” value was inactive: 23.7%. In the case of `Cc1ccc(OCc2ccc(C(=O)NN)o2)cc1C`, the Potency was inconclusive [activator, partial curve]. In the case of `O=C(Cn1nc(Cc2cccnc2)c2ccccc2c1=O)N1CCN(c2ccccc2F)CC1`, the “growth rescue (activation)” value was inactive: -3.56%. In the case of `CN(C)C(=S)NC(=S)Nc1ccc2ccccc2c1`, the Potency was inconclusive [activator, single point]. With `Cc1cc(O)c2c(C)c(CC(=O)NCc3ccccc3Cl)c(=O)oc2c1` the “growth rescue (activation)” value was inactive: 11.1%. In the case of `Cc1ccc(Sc2ccc(C(=O)N3CCOCC3)cc2[N+](=O)[O-])cc1`, the Potency was inconclusive [activator, single point]. For `COc1cccc(C(c2nnnn2CCc2ccccc2)N2CCN(c3ccccc3)CC2)c1OC` (configuration not stated), the Potency was inconclusive [activator, single point]. With `Cc1ccccc1-c1csc(C(O)c2ccc(F)cc2)n1` (configuration not stated) the Potency was inconclusive [activator, partial curve]. In the case of `COc1ccccc1-c1cn[nH]c1-c1ccc(OCc2ccc(F)cc2)cc1O`, the Potency was inconclusive [activator, single point]. In the case of `NC(=O)c1ccc2nc(-c3ccccc3)c(-c3ccccc3)nc2c1`, the “growth rescue (activation)” value was inactive: 7.73%. With `CC1(C(=O)Nc2ccc(Cl)c(C(F)(F)F)c2)Cc2c(-c3cccc(C(N)=O)c3)ccnc2O1` (configuration not stated) the Potency was inconclusive [activator, full curve, poor fit]. For `CCCCC(CC)CNC(=O)CN(C)S(=O)(=O)c1cccc2nsnc12` (configuration not stated), the Potency was inconclusive [activator, single point]. For `O=C(NCCc1ccccc1)c1ccc2c(c1)N(Cc1ccc(Cl)cc1)C(=O)c1ccccc1S2(=O)=O`, the “growth rescue (activation)” value was inactive: 4.1%. With `Cc1ccc(N2CC(NC(=O)CCCc3ccccc3)CC2=O)cc1` (configuration not stated) the Potency was inconclusive [activator, partial curve, poor fit]. In the case of `Cc1ccc(C)c2sc(N3CCN(C(=O)C(C)(C)C)CC3)nc12`, the Potency was active: 35.5 µM. With `CC(=O)N1N=C(c2ccco2)CC1c1ccc(Br)cc1` (configuration not stated) the Potency was active: 20 µM. For `COc1ccccc1N1CCN(C2CC(=O)N(c3ccc(F)cc3)C2=O)CC1` (configuration not stated), the Potency was inconclusive [activator, partial curve]. In the case of `O=C(Nc1ccccc1N1CCOCC1)c1cccc2ccccc12`, the Potency was inconclusive [activator, partial curve]. In the case of `CCN(CC)c1sc(S(=O)(=O)c2ccccc2)nc1S(=O)(=O)c1ccc(C)cc1`, the “growth rescue (activation)” value was inactive: 9.07%. In the case of `CCC(=O)c1cc2c(cc1NC(=O)c1ccccc1F)OCCO2`, the “growth rescue (activation)” value was inactive: 10.3%. In the case of `COc1ccc(NC(=O)Cn2ncc3c2-c2ccccc2OC3)cc1Cl`, the “growth rescue (activation)” value was inactive: 16.2%. In the case of `COc1ccc(/C(N)=N/OC(=O)c2cccs2)cc1OC`, the Potency was active: 22.4 µM. For `Cc1cc(NC(=O)c2ccoc2C)ccc1Br`, the Potency was active: 11.2 µM. With `COc1ccc2c(c1OC)OCC2C` (configuration not stated) the Potency was inconclusive [activator, single point]. For `O=C(CSc1nc2c([nH]c3ccccc32)c(=O)n1-c1ccccc1)Nc1ccc2c(c1)OCCO2`, the Potency was inconclusive [activator, full curve]. In the case of `O=C(c1cc2ncccn2n1)N1CCc2c([nH]c3ccccc23)C1c1ccccc1F` (configuration not stated), the Potency was inconclusive [activator, single point]. In the case of `COc1ccccc1C(=O)Nc1ccc(OCc2cc(=O)n3ccsc3n2)cc1`, the Potency was inconclusive [activator, partial curve]. With `CCOc1cc(S(=O)(=O)N2CCN(S(=O)(=O)CC)CC2)c(OCC)cc1-n1cnnn1` the “growth rescue (activation)” value was inactive: -18.4%. For `COc1ccc(OC)c(COC(=O)c2cc([N+](=O)[O-])ccc2N2CCOCC2)c1`, the Potency was inconclusive [activator, single point]. In the case of `CC1CCN(c2nc(-c3ccco3)c3c(c2C#N)CC(C)(C)OC3)CC1`, the Potency was active: 11.2 µM. With `CCc1cnc2c(c1SCC(=O)c1ccc(OC)cc1)c(=O)n(C)c(=O)n2C` the “growth rescue (activation)” value was inactive: -0.374%. For `O=C(c1ccc([N+](=O)[O-])cc1)N1CCSC1c1ccccc1Cl` (configuration not stated), the Potency was inconclusive [activator, single point]. For `COc1ccc(OC)c(/C=C/C(=O)Nc2ccc(C(=O)OCCC(C)C)cc2)c1`, the Potency was inconclusive [activator, partial curve, poor fit]. In the case of `CC[C@@H](NS(=O)(=O)c1ccc(C)cc1)C(=O)Oc1ccc2c3c(c(=O)oc2c1)CCC3`, the Potency was inconclusive [activator, partial curve]. In the case of `Cc1nc(N2CCOCC2)c2c(C)c(C(=O)Nc3ccccc3C(F)(F)F)sc2n1`, the Potency was inconclusive [activator, single point]. For `O=C1C=CC(=O)N1Cc1ccccc1`, the growth rescue (activation) was inconclusive: -92.5% [activator]. With `Cc1c(-c2ccc(Cl)cc2)c(=O)oc2ccc(OC(=O)N3CCOCC3)cc12` the Potency was inconclusive [activator, single point]. For `CCCCOc1cccc(C(=O)N(Cc2cccs2)c2ccc(OC)cc2)c1`, the “growth rescue (activation)” value was inactive: -41.2%. For `CC(C)(C)c1ccc(-c2nc(SCC(=O)Nc3ccc(Cl)cc3)[nH]c(=O)c2C#N)cc1`, the “growth rescue (activation)” value was inactive: 13.7%. For `CCC(C)(O)c1[nH]c2ccc(C(F)(F)F)cc2c1C` (configuration not stated), the Potency was active: 17.8 µM. In the case of `Cc1ccc(/C=C/c2ccc(=O)n(Cc3ccc(F)cc3)n2)cc1`, the Potency was inconclusive [activator, partial curve]. In the case of `CC1C/C(=C/c2cccn2C)C(=O)/C(=C/c2cccn2C)C1` (configuration not stated), the Potency was active: 12.6 µM. With `CCOC(=O)Cc1csc(NC(=O)NC2(C(F)(F)F)Oc3cc(Cl)c(Cl)cc3O2)n1` the Potency was inconclusive [activator, partial curve, poor fit].
